Results from US20240076343A1 (CEPHALON, published 2024).

T1: intermediate-affinity hIL-2 receptor (IL-2Rβγ) on TF1+IL-2Rβ cells (human, UniProt P14784 27-551; P31785 23-369)
T1 sequence 1: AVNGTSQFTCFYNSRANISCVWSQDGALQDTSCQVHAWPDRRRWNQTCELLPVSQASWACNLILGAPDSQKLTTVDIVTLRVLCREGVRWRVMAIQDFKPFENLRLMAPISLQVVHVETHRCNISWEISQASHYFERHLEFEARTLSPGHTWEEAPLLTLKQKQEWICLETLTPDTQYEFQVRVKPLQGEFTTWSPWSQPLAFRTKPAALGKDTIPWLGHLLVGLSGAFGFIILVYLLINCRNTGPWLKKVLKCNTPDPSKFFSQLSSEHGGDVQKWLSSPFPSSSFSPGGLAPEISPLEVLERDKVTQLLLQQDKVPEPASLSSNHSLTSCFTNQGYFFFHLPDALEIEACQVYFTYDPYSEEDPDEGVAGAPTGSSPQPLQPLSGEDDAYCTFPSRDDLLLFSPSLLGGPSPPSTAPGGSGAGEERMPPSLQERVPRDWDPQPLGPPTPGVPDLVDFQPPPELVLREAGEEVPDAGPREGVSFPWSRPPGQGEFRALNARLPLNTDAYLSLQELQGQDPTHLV
T1 sequence 2: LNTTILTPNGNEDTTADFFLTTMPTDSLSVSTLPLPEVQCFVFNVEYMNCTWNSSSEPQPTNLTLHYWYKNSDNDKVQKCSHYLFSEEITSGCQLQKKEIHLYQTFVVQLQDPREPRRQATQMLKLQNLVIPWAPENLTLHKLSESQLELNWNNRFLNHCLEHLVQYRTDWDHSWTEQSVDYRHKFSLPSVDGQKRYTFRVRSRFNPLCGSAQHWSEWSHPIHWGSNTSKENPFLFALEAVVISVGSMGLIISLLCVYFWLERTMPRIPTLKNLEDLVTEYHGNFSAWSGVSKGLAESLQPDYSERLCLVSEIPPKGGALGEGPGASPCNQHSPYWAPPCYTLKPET


Columns and labels:
[1] = target: T1, intermediate-affinity hIL-2 receptor …; test: cell-based or functional assay
[2] = target: T1, intermediate-affinity hIL-2 receptor …; test: cell-based or functional assay; remark: listed apart in the source

Fold decrease from rhIL-2 (TF1 + IL-2Rβ + hPD-1) [1] [fold]	Agonistic Activity (TF1 + IL-2Rβ) [2] [%]	Fold change from rhIL-2 (TF1 + IL-2Rβ) [2] [fold]	Binder
~1	80	> 10000	C51E6-5-hIgG4-L6-hIL-2 (D20A/R38E) (other) heavy: QVQLVQSGSELKKPGASVKVSCKASGYSLYGTSMHWVRQAPGQGLEWMGYISPFTGRATYAQGFTGRFVFSLDTSVSTAYLQISSLKAEDTAVYYCARDYDYRYYYAMDYWGQGTTVTVSSASTKGPSVFPLAPCSRSTSESTAALGCLVKDYFPEPVTVSWNSGALTSGVHTFPAVLQSSGLYSLSSVVTVPSSSLGTKTYTCNVDHKPSNTKVDKRV[not shown - about 350 residues with a human IgG4 Fc and changes] light: EIVLTQSPDFQSVTPKEKVTITCTASESVPPQFLHWYQQKPDQSPKLLIYASRERASGVPSRFSGSGSGTDFTLTINSLEAEDAATYYCHQFHRSPLTFGGGTKLEIKRTVAAPSVFIFPPSDEQLKSGTASVVCLLNNFYPREAKVQWKVDNALQSGNSQESVTEQDSKDSTYSLSSTLTLSKADYEKHKVYACEVTHQGLSSPVTKSFNRGEC
~0	60	~6600	2A3.H7-hIgG4-df-hIL-2 (D20A/R38E) (other) heavy: EVQLLESGGGLVQPGGSLRLSCAASGFTFKDYCMTWVRQAPGKGLEWVSAIVYSGGSTYYADSVKGRFTISRDNSKNTLYLQMNNLRAEDTAVYYCAKYTRASYFYDAMDVWGQGTTVTVSSASTKGPSVFPLAPCSRSTSESTAALGCLVKDYFPEPVTVSWNSGALTSGVHTFPAVLQSSGLYSLSSVVTVPSSSLGTKTYTCNVDHKPSNTKVDKRV[not shown - about 350 residues with a human IgG4 Fc] light: EIVLTQSPGTLSLSPGERATLSCRASQSIGRSFLAWYQQKPGQAPRLLIYDASTRAADIPARFSGSGSGTDFTLTISSLEPEDFAVYYCQQYYDWPPLSFGGGTKVEIKRTVAAPSVFIFPPSDEQLKSGTASVVCLLNNFYPREAKVQWKVDNALQSGNSQESVTEQDSKDSTYSLSSTLTLSKADYEKHKVYACEVTHQGLSSPVTKSFNRGEC
~0	90	~9770	1H9-hIgG4-df-hIL-2 (D20A/R38E) (other) heavy: EVQLLESGGGLVQPGGSLRLSCVGSGFNLKDYCMTWVRQAPGKGLEWVSAIVYSGGSTYYADSVKGRFTISRDNSKNTLYLQMNSLRAEDTAVYYCAKYTRGSYFYDAMDVWGQGTTVTVSSASTKGPSVFPLAPCSRSTSESTAALGCLVKDYFPEPVTVSWNSGALTSGVHTFPAVLQSSGLYSLSSVVTVPSSSLGTKTYTCNVDHKPSNTKVDKRV[not shown - about 350 residues with a human IgG4 Fc] light: EIVLTQSPGTLSLSPGERATLSCRASQSIGRSFLAWYQQKPGQAPRLLIYDASTRAADIPDRFSGSGSGTDFTLTINRLEPEDFAVYYCQQYYDWPPLTFGGGTKVEIKRTVAAPSVFIFPPSDEQLKSGTASVVCLLNNFYPREAKVQWKVDNALQSGNSQESVTEQDSKDSTYSLSSTLTLSKADYEKHKVYACEVTHQGLSSPVTKSFNRGEC
~1		> 10000	2H7-hIgG4-df-hIL-2 (T3A/D20A/R38E/C125A) (other) heavy: EVQLLESGGGLVQPGGSLRLSCAASGFTFKDYCMTWVRQAPGKGLEWVSAIVYSGGSTYYADSVKGRFTISRDNSKNTLYLQMNNLRAEDTAVYYCAKYTRASYFYDAMDVWGQGTTVTVSSASTKGPSVFPLAPCSRSTSESTAALGCLVKDYFPEPVTVSWNSGALTSGVHTFPAVLQSSGLYSLSSVVTVPSSSLGTKTYTCNVDHKPSNTKVDKRV[not shown - human IgG4 Fc with S228P (EU numbers)]APASSSTKKTQLQLEHLLLALQMILNGINNYKNPKLTEMLTFKFYMPKKATELKHLQCLEEELKPLEEVLNLAQSKNFHLRPRDLISNINVIVLELKGSETTFMCEYADETATIVEFLNRWITFAQSIISTLT light: EIVLTQSPGTLSLSPGERATLSCRASQSIGKSFLAWYQQKPGQAPRLLIYDASTRAADIPARFSGSGSGTDFTLTISSLEPEDFAVYYCQQYYDWPPLSFGGGTKVEIKRTVAAPSVFIFPPSDEQLKSGTASVVCLLNNFYPREAKVQWKVDNALQSGNSQESVTEQDSKDSTYSLSSTLTLSKADYEKHKVYACEVTHQGLSSPVTKSFNRGEC

The remaining lines, values behind:

Binder	Fold decrease from rhIL-2 (TF1 + IL-2Rβ + hPD-1) [1] [fold]	Agonistic Activity (TF1 + IL-2Rβ) [2] [%]	Fold change from rhIL-2 (TF1 + IL-2Rβ) [2] [fold]
1H3-hIgG1-L6-hIL-2 (T3A/D20A/R38E/C125A) (other) heavy: EVQLVESGGGLVQPGRSLKLSCAVSGFTFSDYAMAWVRQAPKKGLEWVATISYDGSRTYYRDSVKGRFTISRDNAKITLYLQMDSLRSEDTATYYCARHGSGYFDYWGQGVMVTVSS[not shown - human IgG1 constant region]SGGGGSAPASSSTKKTQLQLEHLLLALQMILNGINNYKNPKLTEMLTFKFYMPKKATELKHLQCLEEELKPLEEVLNLAQSKNFHLRPRDLISNINVIVLELKGSETTFMCEYADETATIVEFLNRWITFAQSIISTLT light: DTVLTQSPALAVSPGERVTISCRASESVRTGVHWYQQKPGQQPKLLIYGASNLESGVPARFSGSGSGTDFTLTIDPVEADDTATYFCQQSWNDPFTFGSGTKLEIKRTVAAPSVFIFPPSDEQLKSGTASVVCLLNNFYPREAKVQWKVDNALQSGNSQESVTEQDSKDSTYSLSSTLTLSKADYEKHKVYACEVTHQGLSSPVTKSFNRGEC	1080		
1H3-hIgG1-LAGA-df-hIL-2 (T3A/D20A/R38E/C125A) (other) heavy: EVQLVESGGGLVQPGRSLKLSCAVSGFTFSDYAMAWVRQAPKKGLEWVATISYDGSRTYYRDSVKGRFTISRDNAKITLYLQMDSLRSEDTATYYCARHGSGYFDYWGQGVMVTVSS[not shown - human IgG1 constant region with L235A G237A (EU numbers)]APASSSTKKTQLQLEHLLLALQMILNGINNYKNPKLTEMLTFKFYMPKKATELKHLQCLEEELKPLEEVLNLAQSKNFHLRPRDLISNINVIVLELKGSETTFMCEYADETATIVEFLNRWITFAQSIISTLT light: DTVLTQSPALAVSPGERVTISCRASESVRTGVHWYQQKPGQQPKLLIYGASNLESGVPARFSGSGSGTDFTLTIDPVEADDTATYFCQQSWNDPFTFGSGTKLEIKRTVAAPSVFIFPPSDEQLKSGTASVVCLLNNFYPREAKVQWKVDNALQSGNSQESVTEQDSKDSTYSLSSTLTLSKADYEKHKVYACEVTHQGLSSPVTKSFNRGEC	6460		
1H3-hIgG1-L6-hIL-2 (T3A/F42A/Y45A/L72G/C125A) (other) heavy: EVQLVESGGGLVQPGRSLKLSCAVSGFTFSDYAMAWVRQAPKKGLEWVATISYDGSRTYYRDSVKGRFTISRDNAKITLYLQMDSLRSEDTATYYCARHGSGYFDYWGQGVMVTVSS[not shown - human IgG1 constant region]SGGGGSAPASSSTKKTQLQLEHLLLDLQMILNGINNYKNPKLTRMLTAKFAMPKKATELKHLQCLEEELKPLEEVLNGAQSKNFHLRPRDLISNINVIVLELKGSETTFMCEYADETATIVEFLNRWITFAQSIISTLT light: DTVLTQSPALAVSPGERVTISCRASESVRTGVHWYQQKPGQQPKLLIYGASNLESGVPARFSGSGSGTDFTLTIDPVEADDTATYFCQQSWNDPFTFGSGTKLEIKRTVAAPSVFIFPPSDEQLKSGTASVVCLLNNFYPREAKVQWKVDNALQSGNSQESVTEQDSKDSTYSLSSTLTLSKADYEKHKVYACEVTHQGLSSPVTKSFNRGEC	~2		
1H3-hIgG1-L6-hIL-2 (D20T) (other) heavy: EVQLVESGGGLVQPGRSLKLSCAVSGFTFSDYAMAWVRQAPKKGLEWVATISYDGSRTYYRDSVKGRFTISRDNAKITLYLQMDSLRSEDTATYYCARHGSGYFDYWGQGVMVTVSS[not shown - about 450 residues with a human IgG1 Fc and changes] light: DTVLTQSPALAVSPGERVTISCRASESVRTGVHWYQQKPGQQPKLLIYGASNLESGVPARFSGSGSGTDFTLTIDPVEADDTATYFCQQSWNDPFTFGSGTKLEIKRTVAAPSVFIFPPSDEQLKSGTASVVCLLNNFYPREAKVQWKVDNALQSGNSQESVTEQDSKDSTYSLSSTLTLSKADYEKHKVYACEVTHQGLSSPVTKSFNRGEC	~75		
